Results taken from ChEMBL document CHEMBL4888484, “Replenishing the malaria drug discovery pipeline: Screening and hit evaluation of the MMV Hit Generation Library 1 (HGL1) against asexual blood stage Plasmodium falciparum ,using a nano luciferase reporter read-out” (2022).
The whole screen tested about 150,000 compounds, of which about 540 (0.36%) showed an effect of 50% or more. The list shows a part of the results.

System: Plasmodium falciparum
Assay: Primary screen in NF54 nanoGlo assay, in single point, at 2uM, 72h; a lower Z score goes with more inhibition
Format: functional, Erythrocyte
Settings: timepoint 72 hour

Row | Compound | % Inhibition | Z score
1 | C[C@H](O)CCN(C)c1ncccc1C(F)(F)F | -12% | 1.87
2 | COc1ccc(-c2nnc(NCCc3ccccc3)[nH]c2=O)cc1 | -24% | 2.87
3 | O=C(O)[C@H]1CCCN1Cc1cc(Cl)c2c(c1)OCCO2 | -12% | 1.58
4 | CCCc1nnc(NC(=O)CN2CC=C(n3c(=O)[nH]c4ccccc43)CC2)s1 | -16% | 1.91
5 | CCc1oc(C(=O)N2CCC[C@H](CN3CCOCC3)C2)cc1C | -11% | 1.25
6 | CCOCCCNC(=O)c1nc(Cn2nc(-c3ccc(C)cc3)ccc2=O)no1 | -8% | 1
7 | COc1ccc(COC(=O)c2c(C)noc2C(C)C)cn1 | -6% | 0.82
8 | Cc1c(NC(=O)CNC(=O)COc2ccccc2)c(=O)n(-c2ccccc2)n1C | 3% | -0.36
9 | Cc1cc2nc(C)c(=O)n(Cc3ccc(C(=O)NCCCN4CCCC[C@@H]4C)cc3)c2cc1C | 30% | -4.3
10 | Cc1nn(CC(F)(F)F)c(C)c1C(C)C(=O)NC1CCc2cn[nH]c2C1 (stereo not given) | -3% | 0.67
11 | Cc1ccc(C)c(S(=O)(=O)NCC2CCN(S(=O)(=O)N(C)C)CC2)c1 | -10% | 1.1
12 | Cc1ccccc1C(=O)NCCCN(C)C | 8% | -0.99
13 | C1=CC[C@@H](c2nc(C3CC3)nn2C2CCCCC2)CC1 | -6% | 1.14
14 | Cc1occc1C(=O)NC[C@H]1Cc2ccccc2O1 | -11% | 1.71
15 | O=C(c1ccc(Cl)cn1)N1CCC(S(=O)(=O)N2CCCC2)CC1 | -11% | 1.78
16 | Cc1nc(N)nc(N2CCN(c3ccncc3)CC2)c1C | 1% | -0.17
17 | CC[C@H](NC(=O)N1CC(C)(C)OC(C)(C)C1)c1nccs1 | -16% | 1.63
18 | CCc1nn(-c2ccccc2)c2c1CN(C(=O)Nc1ccc(C)c(F)c1)[C@H](c1cccc(OC)c1)c1cccn1-2 | -15% | 2.8
19 | Cc1cc(Br)oc1C(=O)N1CCC(C)(C)C1 | -4% | 0.34
20 | CC[C@H]1OCC[C@@H]1C(=O)N1CCN(C(=O)c2cc(C)[nH]n2)C[C@@H]1C | -3% | 0.52
21 | CCc1cc(NC(=O)[C@H]2CC23CCOCC3)ccc1C | -15% | 1.9
22 | CN(Cc1ncc(-c2ccccc2)o1)c1ccccc1 | -6% | 0.5

Row | Compound | % Inhibition | Z score
23 | Cc1ccsc1CN(CCN1CCOCC1)[C@H]1CCCNC1 | -5% | 0.7
24 | Cc1c(CN2CCC3(CCCC3)C2)cc(C#N)n1C | -17% | 1.77
25 | CCc1n[nH]cc1C(=O)N1CCN(Cc2cc(C)cc(C)c2)C(=O)C1 | -15% | 1.42
26 | Cc1ccoc1C(=O)NC1CCN(C(=O)c2ncccc2Cl)CC1 | -8% | 0.82
27 | CCc1csc([C@H]2CCCN(c3ncnc(N)c3Cl)C2)n1 | -7% | 1.01
28 | CCCCOCC(=O)N[C@H]1CCCN(CCN2CCOCC2)C1=O | -12% | 1.1
29 | O=C(NC1CCCCC1)c1ccc(Oc2ccnc(-c3cccc(F)c3)n2)cc1 | -6% | 0.76
30 | COc1cc(OC)c(OC)cc1NC(=O)N1CC(C)(C)C1(C)C | -4% | 0.4
31 | Fc1ccc(-c2cn3c(-c4ccccc4)c(-c4ccccc4)nc3[nH]2)cc1 | -1% | 0.14
32 | O=C(NC1CCCCC1)C1Cc2cc(C(F)(F)F)ccc2N2CCN(c3ccccn3)CC12 (stereo not given) | -10% | 1.62
33 | CCOCCCC(=O)Nc1nc(-c2cc(C)oc2C)cs1 | -8% | 1.28
34 | CC1CN(C(=O)CCNC(=O)Nc2cccnc2)CC(C)O1 (stereo not given) | -2% | 0.21
35 | CCN1CCN(C(=O)c2cccc(-c3ccnc(OC)c3C#N)c2)CC1=O | -1% | 0.21
36 | COc1cc(C(=O)Nc2c(-c3cccc4ccccc34)c(=O)c3ccccc3n2C)cc(OC)c1OC | -6% | 0.86
37 | Cc1ccc(CN(Cc2ccccn2)C(=O)[C@@H]2CN(C)c3ccccc3O2)s1 | 31% | -2.91
38 | CCNC(=O)CNC(=O)c1ccc(CC)o1 | -6% | 1.24
39 | COc1cc(NS(=O)(=O)c2cc(C(=O)N3CCC3)ccc2OC)cc(OC)c1 | -8% | 1.01
40 | Cc1cc(CNc2cccc(S(=O)(=O)NC3CC3)c2C)ccc1F | 3% | -0.44
41 | Cc1cc(N2CCC(CNC(=O)c3c(Cl)cnn3C)CC2)c2ccccc2n1 | 10% | -1.32
42 | O=C1[C@@H]2C[C@H](O)CCN2C(=O)CN1Cc1cccc2ccccc12 | 3% | -0.31
43 | CC[C@@H](Cc1cccc(Br)c1)C(=O)N(C)C | -1% | 0.12
44 | O=C(O)c1ccc(CN2CCC[C@H]2c2nccc(C(F)(F)F)n2)s1 | -33% | 3.58

Row | Compound | % Inhibition | Z score
45 | O=C1C[C@H](COCc2ccccc2)c2c(-c3cccnc3)n[nH]c2N1 | -8% | 1.58
46 | O=C1NCCCCC1NC[C@@H](O)c1ccc(C(F)(F)F)cc1 (stereo not given in full) | -14% | 1.5
47 | O=C(NCCNS(=O)(=O)Cc1ccccc1)Nc1ccc(N2CCCC2=O)cc1 | 1% | -0.19
48 | CC(C)OC(=O)N1CCC(NC(=O)N(C)C)CC1 | 14% | -1.67
49 | Cc1nn(-c2ccccc2)c(Oc2ccc(Cl)cc2)c1CN(CC1CC1)C(=O)c1ccco1 | 2% | -0.3
50 | N#Cc1cccc(OCCn2cc(Cl)c(=O)[nH]c2=O)c1 | -17% | 2.47
51 | Cc1cc(N2CCNC2=O)ccc1NC(=O)c1cscn1 | -16% | 2.39
52 | COC[C@H](C)NC(=O)c1ccc2c(c1)CN(CCN1CCCCC1)C2=O | -9% | 1.94
53 | CC1Oc2ccccc2C1NC(=O)NC1CCCC(F)(F)C1 (stereo not given) | 0% | 0.01
54 | O=C(c1cnc2cc(-c3ccccc3)nn2c1)c1cc(Cl)ccc1O | 1% | -0.06
55 | CC(C)CNC(=O)c1cc(C(C)C)n2nc(-c3ccccn3)cc2n1 | 5% | -0.68
56 | Cc1cccc(-c2nc3cc(C)ccc3cc2CN2C[C@H](O)[C@@H](N(C)C)C2)c1 | -11% | 1.36
57 | CCc1nc2c(N(C)CCc3scnc3C)ncnc2o1 | -6% | 1.12
58 | C[C@H]1CCCN1S(=O)(=O)N(C)c1ccc(O)cc1 | -3% | 0.41
59 | COc1cccc(CN2CC3(CCN(C(=O)[C@@H]4CCCO4)CC3)CC2=O)c1 | -13% | 1.74
60 | CCCOc1cccc(-c2nc(N(C)C)n(CC)n2)c1 | -16% | 2.1
61 | CN(CCC#N)C(=O)Nc1cccc2ccsc12 | -12% | 1.98
62 | c1cc(-c2nc(-c3ccncc3)no2)cc(C2OCCO2)c1 | 30% | -3.36
63 | CCCn1c(=O)c(N2CCN(C(=O)COc3ccc(C)c(C)c3)CC2)nc2ccccc21 | 3% | -0.45
64 | COC(=O)c1cncnc1NCCc1ccc(C(F)(F)F)cn1 | -15% | 3.06
65 | COc1ccc(CNC(=O)[C@@H]2CC(=O)c3cc(F)ccc3O2)cc1 | -12% | 1.79
66 | CC(C)c1noc2ncc(C(=O)N3CCN(C)[C@H](c4nc(C5CC5)no4)C3)cc12 | 2% | -0.27

Row | Compound | % Inhibition | Z score
67 | Cc1cc(C)cc(N(C)Cc2cn(C)c(=O)n(C)c2=O)c1 | 4% | -0.74
68 | Cc1cc(C)c2[nH]c(C(=O)N(C)[C@H]3CCN(C)C3)c(C)c2c1 | 1% | -0.15
69 | CC(C)(CC(=O)N1CCC2(CCO2)CC1)c1ccccc1 | 15% | -1.74
70 | CCn1c(C2CCNCC2)nn(Cc2ccccc2C#N)c1=O | 2% | -0.19
71 | CN(Cc1ccccc1)C[C@H](NC(=O)OC(C)(C)C)C(=O)O | -9% | 1.28
72 | O=C(N[C@H]1CCOC[C@@H]1O)c1cc(CO)ccn1 | -19% | 1.68
73 | O=C(COc1ccccc1)N1CCCN(C(=O)COc2ccccc2)CC1 | 34% | -3.85
74 | Cc1nc(C(=O)N2CCS(=O)(=O)C(C)C2C)c2ccccn12 (stereo not given) | -1% | 0.13
75 | O=C1c2ccccc2N[C@H](c2ccc3c(c2)OCCO3)N1C1CCCC1 | -1% | 0.15
76 | C[C@@H](C(=O)N(CC(N)=O)Cc1ccccc1)c1cncnc1 | -4% | 0.36
77 | CCC1(CC)C(NC(=O)N[C@@H]2C=C[C@H](CO)C2)C(C)C1OC (stereo not given in full) | -10% | 1.41
78 | CCc1nnc(-c2coc(S(=O)(=O)N3CCN(c4ccc(C)cc4)CC3)c2)o1 | -6% | 0.76
79 | CCOCCC1(CN=C(N)N2CCCCC2)CCCC1 | 36% | -4.9
80 | Cc1cc(C(F)(F)F)nn1CC(=O)N1CC[C@H](n2c(C)cnc2-c2ccncc2)C1 | -19% | 2.36
81 | C[C@@H](CCc1ncnn1Cc1ccccc1Cl)N1CCN(C)CC1 | -1% | 0.13
82 | Cc1ccc(C)c(NC(=O)Cn2c(C)cc(-c3nnc(C4CCC4)o3)c2C)c1 | -9% | 1.81
83 | O=C(Cc1ccc(N(Cc2cccc(F)c2)C(=O)C2CCCC2)cc1)NCCN1CCCC1 | 25% | -2.85
84 | CCn1ccnc1CNc1cccc2c1OCCO2 | -23% | 1.95
85 | CC(=O)N[C@@H](Cc1c[nH]c2ccccc12)C(=O)Nc1ccc(C)c(C)c1 | -1% | 0.3
